Paper PMC4336329 (PLoS ONE, 2015)
The campaign covered roughly 310,000 compounds. About 2,200 (0.71%) showed an effect of 50% or more. Effects have a minus sign here. The list shows a part of the results.

target: human ether-à-go-go-related gene (hERG) potassium channel (human, UniProt Q12809); test: primary screen, population patch clamp on CHO cells stably expressing hERG
Sequence (Q12809 whole entry, looked up): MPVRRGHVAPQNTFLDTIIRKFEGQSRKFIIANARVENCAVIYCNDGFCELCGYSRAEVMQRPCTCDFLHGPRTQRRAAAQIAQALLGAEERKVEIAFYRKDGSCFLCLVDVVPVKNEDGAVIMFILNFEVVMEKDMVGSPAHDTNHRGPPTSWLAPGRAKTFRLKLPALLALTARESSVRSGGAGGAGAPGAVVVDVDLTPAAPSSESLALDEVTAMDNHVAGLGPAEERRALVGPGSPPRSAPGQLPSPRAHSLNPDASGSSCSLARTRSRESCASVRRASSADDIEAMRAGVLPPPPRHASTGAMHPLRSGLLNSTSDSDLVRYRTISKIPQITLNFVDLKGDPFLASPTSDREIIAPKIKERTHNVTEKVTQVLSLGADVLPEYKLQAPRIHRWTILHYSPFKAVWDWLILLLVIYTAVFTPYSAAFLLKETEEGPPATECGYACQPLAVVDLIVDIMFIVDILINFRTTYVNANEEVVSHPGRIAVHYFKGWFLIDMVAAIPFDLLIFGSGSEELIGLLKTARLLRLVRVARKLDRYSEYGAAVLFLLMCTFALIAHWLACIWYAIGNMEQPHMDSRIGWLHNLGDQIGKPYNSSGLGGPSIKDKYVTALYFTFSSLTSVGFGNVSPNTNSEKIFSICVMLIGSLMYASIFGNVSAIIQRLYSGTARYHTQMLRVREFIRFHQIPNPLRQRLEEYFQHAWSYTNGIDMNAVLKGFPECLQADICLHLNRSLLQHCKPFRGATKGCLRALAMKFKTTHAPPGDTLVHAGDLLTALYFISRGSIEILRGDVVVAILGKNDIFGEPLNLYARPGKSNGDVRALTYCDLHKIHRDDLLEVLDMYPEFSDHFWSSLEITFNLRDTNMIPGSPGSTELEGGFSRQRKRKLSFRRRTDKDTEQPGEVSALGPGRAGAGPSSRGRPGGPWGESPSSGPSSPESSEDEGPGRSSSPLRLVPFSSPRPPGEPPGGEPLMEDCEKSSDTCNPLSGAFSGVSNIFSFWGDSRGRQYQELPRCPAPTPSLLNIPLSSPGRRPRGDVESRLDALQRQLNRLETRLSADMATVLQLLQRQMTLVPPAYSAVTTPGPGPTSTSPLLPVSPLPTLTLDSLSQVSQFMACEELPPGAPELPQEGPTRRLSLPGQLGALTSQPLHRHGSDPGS

Row | Structure (SMILES) | hERG current change (%, negative = inhibition) at 1uM
1 | CC(=O)N(Cc1ccc(F)cc1)C1=C(NCCc2ccccc2)C(=O)c2ccccc2C1=O | 6.84%
2 | COc1cc(CC(=O)Nc2ccc(Cl)c(C(F)(F)F)c2)cc(OC)c1OC | 4.63%
3 | Cc1ccc(NC(=O)CSCC(N)=O)cc1C | 9.86%
4 | Cc1ccc(C(=O)N2CCN(S(=O)(=O)c3ccccc3[N+](=O)[O-])C2)cc1 | 0.617%
5 | O=C1c2ccccc2OC2(C=Cc3ccccc3O2)N1Cc1ccccc1 (stereo not drawn) | 6.13%
6 | CC(NC(=O)c1ccc(Cl)c(S(=O)(=O)N2CCCCCC2)c1)c1cccnc1 (stereo not drawn) | -7.26%
7 | COc1ccc(S(=O)(=O)N2CCc3ccccc32)cc1C(=O)O | 5.65%
8 | CCc1ccc(NC(=O)CCNC(=O)Cn2ccc3ccccc3c2=O)cc1 | 23.2%
9 | O=C(N/N=C/c1ccc(O)c(O)c1)c1cc(-c2ccccc2)nc2ccccc12 | 9.97%
10 | CCN1C(=O)c2ccc(C(=O)Nc3ccc(O)cc3C)cc2C1=O | 19.6%
11 | N=c1oc2c3c4c(cc2cc1C(=O)Nc1ccccc1)CCCN4CCC3 | -5.12%
12 | O=c1cc(NC2CCCCC2)c2ccccc2o1 | 7.03%
13 | CC(C)CCN1CCN(Cc2coc3ccccc3c2=O)CC1CCO (stereo not drawn) | 11.5%
14 | O=C(O)CCCC(=O)Nc1ccc2c(c1)oc1ccccc12 | 17.7%
15 | Cc1ccc(NC(=O)CSCC(=O)Nc2cc(Cl)ccc2N2CCN(C)CC2)cc1 | 4.92%
16 | CC(=O)Nc1cccc(C(=O)OCC(=O)c2ccc(S(=O)(=O)N3CCCCC3)cc2)c1 | 3.22%
17 | O=C1NCC(COc2ccc([N+](=O)[O-])cc2)O1 (stereo not drawn) | -26.7%
18 | O=C(COc1cccc(F)c1)Oc1ccc(C(=O)c2ccccc2)cc1 | 9.25%
19 | CCCn1c(CCNC(=O)c2ccco2)nc2ccccc21 | 8.35%
20 | COc1ccc(N2C(=O)C3C4C=CC(C4)C3C2=O)c(OC)c1 (stereo not drawn) | 14.7%
21 | N#Cc1ccc(C(=O)Nc2ccc(N3CCN(C(=O)c4ccco4)CC3)cc2)c(F)c1 | 9.97%
22 | Cc1cccnc1NCC(O)COc1ccccc1 (stereo not drawn) | -18.7%

Row | Structure (SMILES) | hERG current change (%, negative = inhibition) at 1uM
23 | COc1ccc(S(=O)(=O)N2CCN(CC(=O)Nc3cc(Cl)ccc3Cl)CC2)cc1 | 5.89%
24 | COc1ccccc1-c1cc(C(=O)N/N=C/C=C/c2ccccc2[N+](=O)[O-])c2ccccc2n1 | 10.3%
25 | COC(=O)C1=C(c2c(C)noc2C)C[C@@H]2CC[C@H]1N2C(=O)NC1CC1 | 14.3%
26 | O=C(COc1ncnc2c(Cl)cc(Cl)cc12)N1CCN(S(=O)(=O)c2ccccc2)CC1 | 9.74%
27 | Cc1ccc(NS(=O)(=O)c2ccc3c(c2)oc(=O)n3C)c(C)c1 | 15.5%
28 | COc1cc(S(=O)(=O)N(Cc2cccc(OC)c2OC)CC2CCCO2)ccc1-n1cnnn1 (stereo not drawn) | 10.9%
29 | O=C(CC(NC(=O)C(F)(F)F)c1ccccc1)Nc1nnc(CCc2ccccc2)s1 (stereo not drawn) | 2.53%
30 | COCCNC(=O)c1ccc2nc(Cc3ccc(OC)c(OC)c3)oc2c1 | 8.34%
31 | Cc1ccc(C)c(S(=O)(=O)Nc2cc(C)on2)c1 | 16.7%
32 | CN(C)S(=O)(=O)c1ccc(C(=O)OCC(=O)Nc2ccc3c(c2)OCO3)cc1 | 5.74%
33 | COc1ccccc1N(CC(=O)Nc1ccc2c(c1)OCO2)S(=O)(=O)c1ccccc1 | 13.4%
34 | Cc1c(Cl)cccc1NC(=S)NC1CC1 | 5.59%
35 | CCOc1ccc(S(=O)(=O)Nc2cccc(N(C)S(C)(=O)=O)c2)cc1 | 8.38%
36 | Cc1ccccc1CCNCc1cc2cccc(C)c2[nH]c1=O | -1.92%
37 | COc1ccc(C(=O)O)cc1S(N)(=O)=O | 8.32%
38 | COc1ccc2[nH]cc(C(=O)NCCc3ccccc3)c(=O)c2c1 | 9.28%
39 | O=C(Nc1ccncc1)C1CCN(S(=O)(=O)c2ccccc2C(F)(F)F)CC1 | 8.35%
40 | O=C(CCN1C(=O)COc2ccccc21)NCCCN1CCCC1 | 10.4%
41 | CCOc1ccc(NC(=O)Nc2c(C)n(C)n(-c3ccccc3)c2=O)cc1 | 27.8%
42 | CC1(C)CC(=O)C2=C(C1)OC(N)=C(C#N)C21C(=O)N(Cc2ccccc2Cl)c2ccccc21 (stereo not drawn) | 16.5%
43 | O=C(NCc1ccccn1)C(=O)Nc1cc2c3c(c1)CC(=O)N3CCC2 | 6.57%
44 | Cc1ccccc1NC(=O)c1cccc(NC(=O)c2c(C(=O)O)cccc2[N+](=O)[O-])c1 | -1.35%

Row | Structure (SMILES) | hERG current change (%, negative = inhibition) at 1uM
45 | Cc1ncc(CC(=O)n2cc(C(=O)c3cc(F)ccc3O)cn2)s1 | -1.35%
46 | Cc1ccc(-c2nc(Nc3ccc(N4CCOCC4)cc3)c3ccccc3n2)cc1 | 10.4%
47 | Nn1cnnc1SC1CCCCC1NS(=O)(=O)c1ccccc1 (stereo not drawn) | 13.6%
48 | O=C(/C=C/c1cccc([N+](=O)[O-])c1)N(c1ccccn1)c1ccccn1 | 2.8%
49 | COc1ccccc1NC(=O)COC(=O)c1cn(C)c2ccccc12 | -3.06%
50 | O=C1C2C3CCC(C3)C2C(=O)N1CNc1ccccc1 (stereo not drawn) | 1.54%
51 | Cn1c(=O)c2cc3c(nc2n(C)c1=O)CC(c1ccccc1)CC3=O (stereo not drawn) | 11.4%
52 | c1ccc(CSc2nnc(SCc3ccccn3)s2)nc1 | -8.1%
53 | COC(=O)c1cc(NS(=O)(=O)c2ccc(N3CCOCC3)c(NC(C)=O)c2)cc(C(=O)OC)c1 | 15.6%
54 | Cc1cccc(C)c1NC(=O)CSc1nnc(CCCCCNC(=O)OC(C)(C)C)o1 | -8.78%
55 | COCCCn1c(C(=O)N2CCOCC2)cc2c(=O)n3cccc(C)c3nc21 | 1.75%
56 | COc1ccc(N2CC(C(=O)Nc3nnc(SCC(=O)NCC4CCCO4)s3)CC2=O)cc1 (stereo not drawn) | 13.9%
57 | Cc1ccc(C)c(NS(=O)(=O)c2c(C)nn(C)c2C)c1 | 12.5%
58 | COCC1CCN(C(=O)c2cc(COc3ccc(F)cc3F)on2)C1 (stereo not drawn) | 12.2%
59 | COc1cccc(CNc2ccc(N3CCCCC3)cc2)c1OC | 5.1%
60 | Cn1nc(C(C)(C)C)c([N+](=O)[O-])c1C(=O)NC1CCCCC1 | 4.33%
61 | C[C@]12C(=O)N(c3cccc(Cl)c3)C(=O)N1[C@H]1c3ccccc3OC[C@@H]1[C@H]2c1ccccc1 | 16%
62 | Oc1ccccc1/C=N/Nc1ccccc1 | 14.5%
63 | COC(=O)C1=C(C(=O)OC)[C@@H]2N(C)c3ccc(OC)cc3[C@@]23C[C@@H](C(=O)OC)N(C(=O)c2cccs2)C3=N1 | 3.84%
64 | CCOC(=O)N1CCN(C(=O)CSc2ncnc3ccccc23)CC1 | -5.95%
65 | Cc1ccc(NC(=S)Nc2cc(-c3ccccc3)[nH]n2)cc1Cl | 10.5%
66 | COc1ccc(/C=N/OCc2ccccc2C#N)c(OC)c1 | 15.6%

Row | Structure (SMILES) | hERG current change (%, negative = inhibition) at 1uM
67 | Cc1ccsc1C=C1C(=O)c2ccccc2C1=O | 17.8%
68 | CS(=O)(=O)c1nc(S(=O)(=O)c2ccc(Cl)cc2)c(N2CCCCCC2)s1 | 11%
69 | CSc1nc2nc(C)cc(-c3ccccc3)n2n1 | 0.859%
70 | CCOCCCNCC(=O)Nc1ccc(OC(F)(F)F)cc1.Cl | -13.5%
71 | CCOc1cccc(C(=O)NC2CCCCC2)c1 | -4.29%
72 | CCN1CCN(c2ncnc3scc(-c4ccc(C)c(C)c4)c23)CC1 | -50.8%
73 | CC(=O)NCCNC(=O)CCNC(=O)c1ccc(Cl)cc1 | 10.3%
74 | CCOc1ccc(C(C)=O)cc1Cn1c(=O)oc2ccccc21 | 14.3%
75 | CSc1nc2ccc3nc(NC(=O)c4ccc(C)cc4)sc3c2s1 | 11%
76 | CCOc1ccc(C(=O)NCC(=O)OCc2c(C)noc2C)cc1 | 6.96%
77 | CC(=O)c1c(C)[nH]c(C(=O)OCc2ccccc2F)c1C | 2.11%
78 | CC1CCC2(CC1)NC(=O)N(CC(=O)N(Cc1ccccc1)C(C)(C)C)C2=O (stereo not drawn) | 13.4%
79 | COc1cccc(NC2=C(Cl)C(=O)OC2OC(=O)c2ccco2)c1 (stereo not drawn) | 8.22%
80 | O=C(OCC(=O)N1CCc2ccccc21)c1ccccc1[N+](=O)[O-] | 7.79%
81 | O=C(COc1ccccc1)Nc1ccccc1F | 9.15%
82 | Cc1nnc(NC(=O)c2ccc(S(=O)(=O)N3CC(C)CC(C)C3)cc2)o1 (stereo not drawn) | 12.9%
83 | O=C(CN(Cc1cccs1)C(=O)CNS(=O)(=O)c1ccc(Cl)cc1)NCC1CCCO1 (stereo not drawn) | 8.49%
84 | O=C(NNc1nc(-c2ccccc2)cs1)c1ccccc1 | 14%
85 | Cc1ccc(-n2ccc(=O)c(C(=O)Nc3ccc(S(=O)(=O)N4CCOCC4)cc3)n2)cc1 | 9.71%
86 | CC(C)(C)NC(=O)NC(=O)COC(=O)c1cccc(S(=O)(=O)N2CCCCC2)c1 | 4.37%
87 | O=C1CC(C(=O)O)S/C(=N\NC(=O)c2ccc(F)cc2)N1 (stereo not drawn) | 1.14%
